The source of these data is PMC4336329 (PLoS ONE, 2015).

Screen size: about 310,000 compounds; about 2,200 (0.71%) showed an effect of 50% or more. Effects have a minus sign here. This is one part of the list.

Sequence of human ether-à-go-go-related gene (hERG) potassium channel (Q12809 whole entry, looked up): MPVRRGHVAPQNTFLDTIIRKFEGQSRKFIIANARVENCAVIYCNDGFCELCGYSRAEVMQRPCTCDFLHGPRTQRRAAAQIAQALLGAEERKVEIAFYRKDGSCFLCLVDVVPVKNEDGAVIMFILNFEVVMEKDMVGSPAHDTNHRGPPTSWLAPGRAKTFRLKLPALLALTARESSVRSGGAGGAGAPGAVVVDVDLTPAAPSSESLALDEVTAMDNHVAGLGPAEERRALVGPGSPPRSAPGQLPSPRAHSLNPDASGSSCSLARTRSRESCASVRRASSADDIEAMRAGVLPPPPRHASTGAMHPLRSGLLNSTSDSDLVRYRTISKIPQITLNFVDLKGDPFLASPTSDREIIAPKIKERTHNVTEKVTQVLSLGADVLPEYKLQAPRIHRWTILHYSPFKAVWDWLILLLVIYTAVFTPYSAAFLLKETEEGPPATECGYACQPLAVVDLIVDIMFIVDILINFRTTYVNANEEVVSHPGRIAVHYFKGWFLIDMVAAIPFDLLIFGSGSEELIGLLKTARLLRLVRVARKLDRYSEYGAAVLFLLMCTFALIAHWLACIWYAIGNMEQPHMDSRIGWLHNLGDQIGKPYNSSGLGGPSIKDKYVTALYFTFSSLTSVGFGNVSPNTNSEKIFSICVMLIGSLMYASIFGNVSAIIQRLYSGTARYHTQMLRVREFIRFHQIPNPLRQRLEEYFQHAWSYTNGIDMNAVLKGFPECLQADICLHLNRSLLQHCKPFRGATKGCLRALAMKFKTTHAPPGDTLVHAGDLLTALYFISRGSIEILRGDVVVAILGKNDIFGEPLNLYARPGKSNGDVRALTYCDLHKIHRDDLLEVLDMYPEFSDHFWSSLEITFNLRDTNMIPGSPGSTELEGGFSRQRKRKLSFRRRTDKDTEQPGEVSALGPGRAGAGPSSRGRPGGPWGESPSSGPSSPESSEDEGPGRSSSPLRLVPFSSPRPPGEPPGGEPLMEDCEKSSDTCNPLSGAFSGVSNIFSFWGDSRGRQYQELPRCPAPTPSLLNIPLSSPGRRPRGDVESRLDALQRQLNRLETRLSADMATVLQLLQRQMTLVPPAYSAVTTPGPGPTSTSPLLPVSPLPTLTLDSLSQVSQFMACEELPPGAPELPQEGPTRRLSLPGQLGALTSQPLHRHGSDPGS

This assay has as its target human ether-à-go-go-related gene (hERG) potassium channel (human, UniProt Q12809). Description: primary screen, population patch clamp on CHO cells stably expressing hERG.
For the compound `CC(C)CCNC(=O)c1onc(CSc2ccc(F)c(F)c2)c1C(=O)NCCC(C)C`, the “hERG current change (%, negative = inhibition) at 1uM” value came out at 13.9%.

As for `COc1ccc(OC)c(-n2nnnc2SCC(=O)Nc2ccc3c(c2)OCCO3)c1`, the “hERG current change (%, negative = inhibition) at 1uM” value turned out to be 12.6%. Turning to `O=C(Nc1nnc(-c2ccc3c(c2)CCCC3)o1)c1c(F)cccc1F`, the “hERG current change (%, negative = inhibition) at 1uM” value is listed as 9.88%. As for `Nc1nc2ccc(C(=O)NC3CCCCC3)cc2s1`, the figure is 6.38%; as for `CC(=O)Nc1cccc(C(=O)OCC(=O)c2ccc3c(c2)OCO3)c1`, 14.8%; as for `CCC(C(=O)Nc1ncc(C)s1)c1ccccc1` (stereo not drawn), 21%. Then `CCOc1ccc(N(C)S(=O)(=O)c2ccc(C)c(C(=O)NCc3cccs3)c2)cc1`, with 5.63%.

For the compound `CCCNS(=O)(=O)c1ccc(CCC(=O)N2CCN(CC)CC2)cc1`, the “hERG current change (%, negative = inhibition) at 1uM” value came out at 6.58%. Take `Cc1ccccc1-n1nc2c(c1NC(=O)C(C)C)CS(=O)(=O)C2`: the “hERG current change (%, negative = inhibition) at 1uM” value is recorded as 22.8%. As for `O=C(CCc1c[nH]c2ccccc12)Nc1ccc(S(=O)(=O)Nc2ncccn2)cc1`, the figure is 5.97%. Take `COc1ccc(C2=NS(=O)(=O)N(C)C(C(=O)NC3CCCCC3)=C2)cc1OC`: the “hERG current change (%, negative = inhibition) at 1uM” value is -6.46%. Turning to `O=C(COc1ccc(Cl)cc1Cl)NC(=O)N1CCCCC1`, the “hERG current change (%, negative = inhibition) at 1uM” value was determined as 3.66%. Then `COc1ccc(C(=S)Nc2ccc(N(C)C)cc2)cc1`, with 12.9%; and `CCOC(=O)N1CCC(=NNC(=O)COc2cccc(C)c2)CC1`, with 13.5%. Then `COc1ccc(CCNC(=O)c2cc3c(=O)n(C)c4ccccc4c3n2C)c(OC)c1`, with 5.04%; and `CC(Oc1ccc(Br)cc1Cl)C(=O)Nc1ccncc1` (stereo not drawn), with 8.85%. As for `COCC(=O)Nc1c(C(=O)Nc2cccc(OC)c2)oc2ccccc12`, the figure is 15.8%; as for `CSc1ccc(CN(C)CC(=O)Nc2ccc(NC(C)=O)cc2)cc1`, 7.1%.

For the compound `Cc1[nH]c(C)c(S(=O)(=O)N2CCc3ccccc32)c1C(=O)N1CCCCC1`, the “hERG current change (%, negative = inhibition) at 1uM” value stood at 12.9%. As for `O=C(OCc1nc2ccccc2s1)c1cc2ccccc2oc1=O`, the figure is 9.38%; as for `O=[N+]([O-])c1cc2c(c(CSc3ncccn3)c1)OCOC2`, 13.8%; as for `CCCn1c(N)c(C(=O)CN(C)CC(=O)Nc2ccccc2CC)c(=O)[nH]c1=O`, -3.45%. In the case of `COCCn1c(-c2ccc(F)cc2)nc2oc3cc(OC)ccc3c(=O)c2c1=O`, the “hERG current change (%, negative = inhibition) at 1uM” value turned out to be 1.51%. Then `COc1ccc(CC(=O)Nc2ccc(C#N)c(Cl)c2)cc1S(=O)(=O)N1CCOCC1`, with -18.2%; and `Cc1nnc(NC(=O)c2ccc(-c3ccc([N+](=O)[O-])cc3)o2)s1`, with -8.48%; and `Cc1ccc(-n2c(SCC(N)=O)nnc2-c2ccc(S(=O)(=O)N3CCCCC3)cc2)c(C)c1`, with -9.7%. Then `CCOC(=O)CCCNC(=O)CN1C(=O)NC(c2ccccc2)(c2ccccc2)C1=O`, with -0.493%; and `O=C1C(C=NC2CC2)=C(O)c2ccccc21`, with 15.9%; and `Cc1cc(C)n(-c2c(F)c(F)c(CN3CCCCC3)c(F)c2F)n1`, with 8.13%.

On to `CCn1c(-c2ccc(Cl)cc2)n[nH]c1=S`, for which the “hERG current change (%, negative = inhibition) at 1uM” value was determined as 5.68%. As for `CCOP(=O)(OCC)/C(C#N)=C(\O)c1ccc(OC)cc1`, the figure is 9.87%; as for `O=C(O)CCC(=O)Nc1ccccc1C(=O)NCCc1ccccc1`, 16.3%. Then `CCS(=O)(=O)c1ccc2oc(SCC(=O)NCCc3ccccc3)nc2c1`, with 5.84%; and `C/C(=C\c1ccc(C)o1)C(=O)c1c(C)cc(C)[nH]c1=O`, with 10.6%. As for `CCOc1ccc(N=Nc2c(C)noc2C)cc1`, the figure is 11.9%; as for `O=C(COc1ncnc2ccccc12)c1ccc2c(c1)OCCO2`, 13.1%. With `CCC(=O)c1ccc(OCC(=O)Nc2ccccc2C(=O)N2CCCCC2)cc1`, the “hERG current change (%, negative = inhibition) at 1uM” value was determined as 13.8%. `Cc1noc(C)c1C(=O)OCC(=O)Nc1ccc(S(N)(=O)=O)cc1`: the “hERG current change (%, negative = inhibition) at 1uM” value was 8.34%. As for `Cc1ccc(CCNC(=O)C2CCCN(S(=O)(=O)N3CC(C)CC(C)C3)C2)cc1` (stereo not drawn), the figure is 16.3%. As for `Nn1c(SCC(=O)Nc2ccc3c(c2)OCCO3)nnc1C(F)(F)F`, the figure is 7.53%; as for `O=C(CSc1nnc(Cn2c(=O)sc3ccccc32)n1-c1ccccc1)N1CCCCCC1`, 2.64%.

With `CCOc1ccc(C(=O)OCCCN(C)C)cc1`, the “hERG current change (%, negative = inhibition) at 1uM” value turned out to be 1.98%. On to `CSCC[C@H](NC(=O)COc1ccc(Cl)cc1Cl)c1nc2ccccc2[nH]1`, for which the “hERG current change (%, negative = inhibition) at 1uM” value amounted to 8.49%. `COc1ccc(N(CC(=O)Nc2ccc(S(=O)(=O)N3CCOCC3)cc2)S(=O)(=O)c2ccc(F)cc2)cc1`: the “hERG current change (%, negative = inhibition) at 1uM” value stood at 7.3%. Then `O=S(=O)(c1ccc(NCC2CCCCC2)nc1)N1CCOCC1`, with 4.04%; and `Cc1ccc(NC(=O)CNC2CCCCC2)cc1Cl`, with 9.31%. Then `CC1(C)OC(=O)C(=NNc2ccc(O)cc2)C(=O)O1`, with 9.56%; and `Cc1nc(NC(=O)COC(=O)CCc2nc3ccccc3s2)c(Cl)cc1Cl`, with 21.7%; and `CC(C)OC(=O)CSc1nnc(-c2cnccn2)n1C`, with 6.35%. Then `CCOc1ccc2c(c1)c(N=NC(=N)N)c(O)n2C`, with 18.4%. Consider `Cc1ccc(NC2=C/C(=N\S(=O)(=O)c3cccs3)c3ccccc3C2=O)c(C)c1`, for which the “hERG current change (%, negative = inhibition) at 1uM” value is on record as 8.24%. Then `O=C(CNC(=S)N(Cc1ccccc1Cl)C1CCCC1)NCCN1CCOCC1`, with 0.96%; and `O=C1CC(SC(=Nc2ccccc2)Nc2ccccc2)C(=O)N1c1cccc(Cl)c1` (stereo not drawn), with -3.44%; and `O=C(CCc1ccccc1)Nc1ccc(NC(=O)c2ccco2)nc1`, with 13.1%. Then `Oc1ccc(Oc2ncc(Cl)cc2Cl)cc1`, with -9.7%.

In the case of `N#CC1=C(N)N(c2ccccc2C#N)C2=C(C(=O)CCC2)C1c1ccsc1` (stereo not drawn), the “hERG current change (%, negative = inhibition) at 1uM” value is recorded as -2.19%. On to `CC(=Nc1ccccc1)Nc1ccccc1`, for which the “hERG current change (%, negative = inhibition) at 1uM” value stood at 2.41%. `CCCC1=Nc2cc(C(=O)NCCCN3CCOCC3)ccc2Sc2ccccc21`: the “hERG current change (%, negative = inhibition) at 1uM” value stood at 13.7%.

In the case of `CCOC(=O)c1c(C)[nH]c(C(=O)NNC(=O)c2ccc(C(C)(C)C)cc2)c1C`, the “hERG current change (%, negative = inhibition) at 1uM” value is reported as 0.192%.

Consider `CCn1c(SCC(=O)Nc2ccc(OC)c(OC)c2)nnc1-c1cccs1`, for which the “hERG current change (%, negative = inhibition) at 1uM” value amounted to 3.81%. As for `CCOC(=O)N1CCN(c2c(NCCc3ccc(OCC)c(OCC)c3)c(=O)c2=O)CC1`, the “hERG current change (%, negative = inhibition) at 1uM” value was -1.38%. As for `C#CCOC(=O)c1csc2nnsc12`, the figure is 1.47%; as for `CCc1ccc(NC(=O)C(C)Sc2ccc(S(=O)(=O)N3CCN(C)CC3)cn2)cc1` (stereo not drawn), -3.65%; as for `O=C(NNc1ccc(Cl)cc1)C1CCC1`, 12%. As for `NS(=O)(=O)c1ccc(NC(=O)CSc2ncn[nH]2)cc1`, the figure is 12.8%; as for `O=C(NCCCN1CCOCC1)c1cc2c(s1)CSC2`, -3.25%. Then `COc1ccc(C(=O)N2CCOC2CNC(=O)C(=O)NCCc2ccc(OC)c(OC)c2)cc1` (stereo not drawn), with 1.99%; and `CCN(CC)CCNC(=O)NC1CCCCC1`, with 12.1%. As for `COc1ccc2c(c1)SC1=NCCS(=O)(=O)N12`, the “hERG current change (%, negative = inhibition) at 1uM” value is reported as 11.8%.

Consider `COc1cc(NC(=O)c2ccc(Cl)cc2Cl)ccc1-c1cc2ccccc2oc1=O`, for which the “hERG current change (%, negative = inhibition) at 1uM” value is -9.18%.

For the compound `Cc1ccc(NC(=O)C(C)Sc2nnc(C3CC3)n2C2CC2)cc1S(=O)(=O)N1CCOCC1` (stereo not drawn), the “hERG current change (%, negative = inhibition) at 1uM” value is listed as -1.92%. As to `CCOC(=O)c1ccc(N2C(=O)c3n[nH]c(C)c3C2c2ccccc2)cc1` (stereo not drawn), the “hERG current change (%, negative = inhibition) at 1uM” value is given as 5.24%. For the compound `CCN(c1ccccc1)S(=O)(=O)c1cccc(C(=O)OCc2nc3sc(C)c(C)c3c(=O)[nH]2)c1`, the “hERG current change (%, negative = inhibition) at 1uM” value is -8.18%. Regarding `c1ccc(Nc2nn[nH]n2)cc1`, the “hERG current change (%, negative = inhibition) at 1uM” value amounted to 10.1%.

On to `COc1ncnc2c1oc1ccccc12`, for which the “hERG current change (%, negative = inhibition) at 1uM” value turned out to be 12.3%. On to `O=C(Nc1ccccc1C(=O)O)C1=NN=CC1`, for which the “hERG current change (%, negative = inhibition) at 1uM” value came to 10.4%. Turning to `COc1ccc(N2CCN(C(=O)CCS(=O)(=O)c3ccc4c(c3)NC(=O)C(C)S4)CC2)cc1` (stereo not drawn), the “hERG current change (%, negative = inhibition) at 1uM” value was 12.8%.

As for `Cc1cc(Cn2nc(C(=O)NCC3CC3)cc2-c2ccccc2)on1`, the “hERG current change (%, negative = inhibition) at 1uM” value was -4.45%. As for `CCc1nnc(NC(=O)C2CCC(CNc3c(N4CCCCC4)c(=O)c3=O)CC2)s1` (stereo not drawn), the figure is 8.91%; as for `O=C(COc1ccc(Cl)cc1)NCc1nnc(SCC(=O)NCc2ccc3c(c2)OCO3)o1`, 4.88%. As for `Cc1ccc(C(=O)NCCc2c[nH]c3ccccc23)s1`, the figure is 6.36%. For `CC(C)CN1C(=O)NC(NC(=O)c2ccco2)(C(F)(F)F)C1=O` (stereo not drawn), the “hERG current change (%, negative = inhibition) at 1uM” value is given as 2.42%. As for `Cc1cc(C(=O)NP(=O)(N2CC(C)OC(C)C2)N2CC(C)OC(C)C2)c(C)n1C1CC1` (stereo not drawn), the figure is 7.75%; as for `CNC(=O)NC(=O)C(C)OC(=O)CCCSc1nc2ccccc2s1` (stereo not drawn), 12.8%; as for `Nc1c(C(=O)c2ccc(Cl)cc2)sc2nsc(SCCN3CCOCC3)c12`, 0.887%. Consider `CCN1CCN(c2c(Cl)cccc2NC(=O)c2ccc([N+](=O)[O-])o2)CC1`, for which the “hERG current change (%, negative = inhibition) at 1uM” value was -77%. As for `O=C1c2cnc3nc(SCc4ccccc4)nn3c2CC2c3ccccc3CCN12` (stereo not drawn), the “hERG current change (%, negative = inhibition) at 1uM” value was -3.39%. Then `CCn1cc(Br)c(C(=O)Nc2ccccc2C(=O)OC)n1`, with 20.9%; and `COc1ccc2c(c1)OC13CCCCC1C2C(C(=O)c1ccccc1)C(=O)N3` (stereo not drawn), with 5.49%; and `O=C(c1ccc(N2CCCCCC2)c([N+](=O)[O-])c1)N1CCc2ccccc21`, with 7.31%.
